Test results published in PubChem BioAssay AID1345082 (National Center for Advancing Translational Sciences (NCATS), 2018).
Hit rate of the full screen: of about 94,000 compounds, about 4,000 (4.3%) were called active. Inconclusive results, whose numbers are uncertain, are shown with a selection of clear calls. Calls come from the whole dose curve; as a rule, active = well fitted inhibition curve with a large enough effect; inconclusive = small, poorly fitted or top-dose-only effect; inactive = no such curve, though single readings can be large or run the other way. Potencies of inconclusive entries are doubtful fits and often do not repeat.
% is set by controls: 0 for no effect and ±100 for the full control effect; potency is the fitted concentration of half-maximal effect; tags give direction and shape of the fitted curve.

Experiment: Cytotoxic Profiling in NIH 3T3 Cell Line of Diverse Libraries Using Quantitative High-Throughput Screening; note: nearly all actives have a fitted effect of over 55% in size
Settings: NIH 3T3 viability, CellTiter-Glo ATP luminescence, 48-72 h; activity change, negative = cytotoxicity: at 96.7 µM (top of the series) unless noted; series mostly up to 96.7 µM
Outline: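 Luminescent ATP readout (CellTiter-Glo, 10 min RT) after 48 or 72 hr compound exposure of NIH 3T3 cells seeded at 400 cells/well in 1536-well format; quantitative HTS.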
With `COc1ccc(C(=O)N[C@@H]2CCC[C@@H]2C(=O)NCc2ccccn2)cc1` the “activity change, negative = cytotoxicity” value was inactive: -9.15%.
With `O=C(COc1ccccc1)N1CC[C@H](c2nnc(-c3ccccc3)o2)C1` the Potency was inconclusive: 126 µM [inhibitor, single point].
In the case of `O=C(NCc1cccs1)c1cc(-c2ccc(Cl)cc2Cl)c2nncn2n1`, the Potency is reported as inconclusive: 44.7 µM [inhibitor, partial curve, poor fit].
With `COc1ccccc1C(=O)N1CCCC(C(=O)N2CCCC2c2nc3ccncc3[nH]2)C1` (centres undefined) the “activity change, negative = cytotoxicity” value was inactive: -8.43%.
In the case of `COCCNc1ncc(-c2ccc([S+](C)(=O)[O-])cc2)c2c1OCC2`, the Potency is reported as inconclusive: 89.1 µM [inhibitor, partial curve, poor fit].
For `CSc1ccc(-c2cccc(CN3CCC(N[S+](=O)([O-])c4ccc(C)cc4)CC3)c2)cc1`, the Potency was active: 14.1 µM.
For `CN1CCCN(C(=O)C2CCCC2)c2ccccc21`, the Potency was inconclusive: 70.8 µM [inhibitor, single point].
With `CC(C)CCNc1ccc2nncn2n1` the “activity change, negative = cytotoxicity” value was inactive: -32.9%.
With `Cc1nnnn1CCC(=O)Nc1nn(C)c2cccc(Oc3cccnc3)c12` the Potency was inconclusive: 100 µM [inhibitor, single point].
With `CC(C)CNC(=O)c1coc(COc2ccc3c(c2)C(c2cccc(F)c2)N(C(=O)C2CC2)CC3)n1` (centres undefined) the Potency was active: 12.6 µM.
With `CNC(=O)CCC1CCCN(S(=O)(=O)c2cccc(F)c2)C1` (centres undefined) the “activity change, negative = cytotoxicity” value was inactive: 2.33%.
For `O=C(Cc1csc(-c2ccccc2)n1)N1CCCC(c2ccn[nH]2)C1` (centres undefined), the Potency was inconclusive: 35.5 µM [inhibitor, full curve].
In the case of `CCOC(=O)C1(Cc2ccc(OC)cc2)CCNCC1`, the “activity change, negative = cytotoxicity” value is reported as inactive: 0.781%.
With `Cc1ccsc1C(=O)N1CCC2(CC1)N(c1ccccc1)C(=O)CS2(=O)=O` the “activity change, negative = cytotoxicity” value was inactive: -0.958%.
In the case of `CC(C)NC(=O)c1nc(-c2ccccc2)c2ccccn12`, the Potency is reported as inconclusive: 100 µM [inhibitor, partial curve].
In the case of `CN(Cc1cccc(C(F)(F)F)c1)C(=O)Cc1cccc(Cl)c1`, the “activity change, negative = cytotoxicity” value is reported as inactive: -19.7%.
In the case of `COC1CCN(C(=O)Nc2ccccc2)CC(=O)N(C)c2ccccc21` (centres undefined), the Potency is reported as inconclusive: 70.8 µM [inhibitor, partial curve, poor fit].
With `COC1C(=O)N(c2cccc(F)c2)C12CCN(S(=O)(=O)c1ccc(C#N)cc1)CC2` (centres undefined) the “activity change, negative = cytotoxicity” value was inactive: 1.37%.
For `O=C(c1ccccc1F)N1CCCC(C(=O)N2CCC(c3nc4ncccc4[nH]3)CC2)C1` (centres undefined), the “outcome” value was “inactive”.
With `Cc1ccc2nc([C@H]3CCN(Cc4ccccn4)C3)[nH]c2c1` the Potency was inconclusive: 31.6 µM [inhibitor, full curve].
In the case of `O=[S+]([O-])(c1ccccc1)N1CC2(COCCN(Cc3ccncc3)C2)C1`, the Potency is reported as inconclusive: 28.2 µM [inhibitor, full curve, poor fit].
For `COc1coc(CN2CCCC(CCc3ccccc3F)C2)cc1=O` (centres undefined), the Potency was inconclusive: 89.1 µM [inhibitor, single point].
With `COc1ccnc(-c2nnc3ccc(N(C)Cc4ccccc4)nn23)c1` the Potency was inconclusive: 31.6 µM [inhibitor, full curve].
With `O=C(NCCN1CCOCC1)c1cn2cc(-c3cccnc3)sc2n1` the “activity change, negative = cytotoxicity” value was inactive: -18.3%.
In the case of `CC1=C[C@@H](CNC(=O)NC(C)C)[C@H](C(C)C)C[C@H]1Cc1nnc(-c2ccncc2)o1`, the Potency is reported as active: 56.2 µM.
With `CC(C)c1ccc(OCc2nnc(C(=O)N3CCC[C@@H]3C)n2-c2cccnc2)cc1` the Potency was active: 14.1 µM.
For `CCOc1ccc2c(n1)CCN(C(=O)CCC1CCCC1)C2`, the “activity change, negative = cytotoxicity” value was inactive: -28.4%.
In the case of `O=[S+]1([O-])[C@@H](c2ccccc2)[C@H](COCc2ccccc2)CN1C1CC1`, the Potency is reported as inconclusive: 50.1 µM [inhibitor, partial curve, poor fit].
With `O=C(c1ccc(F)cc1)N1Cc2[nH]cnc2C[C@H]1c1nc(-c2ccc(Cl)cc2)no1` the Potency was inconclusive: 63.1 µM [inhibitor, full curve, poor fit].
In the case of `O=C(NCc1ccco1)c1cc2n(n1)CC(c1ccc3c(c1)OCO3)OC2` (centres undefined), the Potency is reported as inconclusive: 70.8 µM [inhibitor, single point].
In the case of `CC(C)N1CCN(C(=O)c2csc(N3CCN(c4cccc(Cl)c4)CC3)n2)CC1`, the Potency is reported as inconclusive: 70.8 µM [inhibitor, partial curve, poor fit].
In the case of `COc1ccc(CN2Cc3[nH]cnc3C[C@H]2C(=O)NCc2ccc(C#N)cc2)c2ccccc12`, the Potency is reported as active: 79.4 µM.
In the case of `CCn1cc(-c2ccc(C)cc2)cc1C(=O)N1CCCN(C)CC1`, the Potency is reported as inconclusive: 35.5 µM [inhibitor, partial curve, poor fit].
With `O=C(c1cccc(Cl)c1)N1CCN(CCCn2nc3n(c2=O)CCCC3)CC1` the “activity change, negative = cytotoxicity” value was inactive: -25.3%.
For `O=C(NCCN1CCOCC1)C1CN(S(=O)(=O)c2cccs2)CC12CCCCC2` (centres undefined), the “outcome” value was “inactive”.
In the case of `CCNC(=O)c1cccnc1OC1CCN(C(=O)c2ccc(C)c(C)c2)C1` (centres undefined), the “activity change, negative = cytotoxicity” value is reported as inactive: 4.49%.
With `Cn1ncc2c(C(=O)NCCCc3ccccc3)cc(-c3cccc(C(F)(F)F)c3)nc21` the Potency was inconclusive: 10 µM [inhibitor, full curve, poor fit].
For `CC1Oc2ccc(NC(=O)c3ccccc3F)cc2CN(C2CCCc3ccccc32)C1=O` (centres undefined), the Potency was inconclusive: 20 µM [inhibitor, full curve].
In the case of `O=C(NCc1cccs1)c1ccc2c(c1)n(Cc1cccc(F)c1)c(=O)c1ccnn12`, the Potency is reported as inconclusive: 17.8 µM [inhibitor, full curve, poor fit].
For `CC(=O)N1CCC(Oc2ccccc2-c2nc(-c3ccccc3)no2)C1` (centres undefined), the Potency was inconclusive: 70.8 µM [inhibitor, single point].
In the case of `Fc1ccc(Nc2cnc3ccc(-c4ccccc4)nn23)cc1`, the Potency is reported as active: 79.4 µM.
In the case of `Cc1ccsc1CN1CCOc2cc([S+](=O)([O-])Nc3cccnc3)ccc2C1`, the Potency is reported as inconclusive: 20 µM [inhibitor, partial curve, poor fit].
For `O=C(Nc1ccc(Oc2ccccc2)cc1)N[C@H]1CO[C@H]2[C@@H]1OC[C@@H]2n1nnnc1Oc1ccc(-n2ccnc2)cc1`, the Potency was inconclusive: 50.1 µM [inhibitor, partial curve, poor fit].
For `CN1C[C@H](C(=O)Nc2ccncn2)C[C@H]1c1cccc(C(F)(F)F)c1`, the Potency was inconclusive: 56.2 µM [inhibitor, partial curve, poor fit].
For `Cc1cnn(CCC(=O)N[C@@H]2COCC[C@H]2OCc2ccccn2)c1`, the “activity change, negative = cytotoxicity” value was inactive: 1.95%.
For `CCn1cc(S(=O)(=O)NCC2Cn3cccc3CN2Cc2ccccc2)cn1` (centres undefined), the Potency was inconclusive: 70.8 µM [inhibitor, single point].
In the case of `Cn1cc(-c2ccsc2)c2nc(CN3CCNC(=O)C3)cn2c1=O`, the Potency is reported as inconclusive: 112 µM [inhibitor, single point].
In the case of `Clc1cc(NCCc2ccccn2)n2nccc2n1`, the Potency is reported as inconclusive: 50.1 µM [inhibitor, partial curve, poor fit].
With `COCCN1CCOc2nc(-c3ccc(C(=O)N(C)C)cc3)ncc2C1=O` the Potency was inconclusive: 112 µM [inhibitor, single point].
For `CC(C)(C)c1csc(NC(=O)c2ccc3c(c2)OCCN(C2CCC2)C3)n1`, the Potency was active: 79.4 µM.
For `Cc1c(Cl)cccc1NC(=O)Cn1c(C)cc2nc3n(c(=O)c21)CCCC3`, the “activity change, negative = cytotoxicity” value was inactive: -31.5%.
With `O=C(NCc1ccc(Cl)cc1)c1ccc2nnc(-c3cc(C(F)(F)F)cc(C(F)(F)F)c3)n2c1` the Potency was inconclusive: 11.2 µM [inhibitor, full curve, poor fit].
In the case of `COC[C@@H]1CN(C(=O)c2cccnc2)C[C@H]1c1ccccn1`, the “activity change, negative = cytotoxicity” value is reported as inactive: -3.75%.
For `COCCOC1CCN(C(=O)c2ccc3cc[nH]c3c2)CC1`, the “activity change, negative = cytotoxicity” value was inactive: -5.18%.
In the case of `CNC(=O)c1cc(C2CC2)nc2onc(C3CCN(C(=O)c4ccccc4F)C3)c12` (centres undefined), the “activity change, negative = cytotoxicity” value is reported as inactive: -24.2%.
In the case of `COc1ccc(OCC2CN(Cc3ccc4c(c3)OCO4)[S+](=O)([O-])c3cccnc3O2)cc1` (centres undefined), the Potency is reported as inconclusive: 28.2 µM [inhibitor, partial curve, poor fit].
For `Cn1nc2n(c1=O)CCN(S(=O)(=O)c1ccc3[nH]c(=O)oc3c1)CC2`, the “outcome” value was “inactive”.
For `CN1C[C@@H](NC(=O)c2ccc(F)cc2)C[C@H]1c1nc(-c2ccc(OC(F)(F)F)cc2)no1`, the Potency was inconclusive: 44.7 µM [inhibitor, partial curve, poor fit].
For `O=C(NCc1ccc(Cl)cc1)c1ccc2nnc(-c3ccc(OC(F)(F)F)cc3)n2c1`, the Potency was inconclusive: 44.7 µM [inhibitor, partial curve, poor fit].
In the case of `O=[S+]1([O-])NC2(CCCN(Cc3ccccc3C(F)(F)F)C2)CNc2ccccc21` (centres undefined), the Potency is reported as inconclusive: 44.7 µM [inhibitor, partial curve, poor fit].
In the case of `CSc1ccc(-c2ccc3c(c2)C(=O)N2CC[C@H](NC(=O)C4CCNCC4)C[C@H]2C(=O)N3)cc1`, the “outcome” value is reported as “inactive”.
With `O=C1CCN(Cc2ccccn2)CCCC(c2nc(-c3cnccn3)no2)CCN1` (centres undefined) the “activity change, negative = cytotoxicity” value was inactive: -17.7%.
With `C[C@]1(CO)[C@H]2Cc3sc(NC(=O)c4ccco4)nc3[C@@H](CC(=O)NCc3ccccc3)[C@]2(C)CC[C@H]1O` the Potency was inconclusive: 35.5 µM [inhibitor, partial curve, poor fit].
For `CC(=O)Nc1ccc(CN2CCC3(Cc4ccccc4CN(C(C)=O)C3)C2)cc1` (centres undefined), the “activity change, negative = cytotoxicity” value was inactive: -8.4%.
With `CCCC(=O)NC1CCN(c2ccnc3ccnn23)C1` (centres undefined) the “activity change, negative = cytotoxicity” value was inactive: -35.7% [at 138 µM].
For `O=C(CNC(=O)C1CCCN1C(=O)c1cccc(-c2cccnc2)c1)c1ccccc1` (centres undefined), the “activity change, negative = cytotoxicity” value was inactive: -16%.
For `COc1ccccc1N1CCN(C(=O)C[C@@H]2CCNC[C@@H]2Cc2cc(-c3ccc(F)cc3)on2)CC1`, the Potency was inconclusive: 50.1 µM [inhibitor, partial curve, poor fit].
For `O=C(CCC1CCN(C(=O)CCc2c[nH]c3ccccc23)CC1)NCc1cccnc1`, the “outcome” value was “inactive”.
For `COc1ccccc1OCC(=O)c1ccc2c(c1)N(CCCC(=O)N1CCC(C)CC1)C(=O)CO2`, the Potency was inconclusive: 50.1 µM [inhibitor, partial curve, poor fit].
